# In the supplement of paper PMC8728848:
# The other results are listed elsewhere or left out.
# Legend:
# Test in all cases: glycan array binding signal (z-score within array); higher = stronger binding
# Conditions in all cases: glycan notation: IUPAC condensed, linker removed
# [1] = target: Man(a1-2)Man(a1-3)[Man(a1-6)]Man(a1-6)[Man(a1-2)Man(a1-3)]Man(b1-4)GlcNAc(b1-4)GlcNAc
# How it was run: (§1)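 The binding signal is a Z-score computed within each array. Data were drawn from 3228 arrays in the Consortium for Functional Glycomics database, restricted to those with a known protein sequence. Scores were averaged over arrays of the same protein sequence at different concentrations or buffers, and over linkers, and negative values can be taken as non-binding.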
# [2] = target: Man(a1-2)Man(a1-6)[Man(a1-3)]Man(a1-6)[Man(a1-2)Man(a1-2)Man(a1-3)]Man
# How it was run: as §1
# [3] = target: Man(a1-2)Man(a1-6)[Man(a1-3)]Man(a1-6)[Man(a1-2)Man(a1-2)Man(a1-3)]Man(b1-4)GlcNAc(b1-4)GlcNAc
# How it was run: as §1
# Man(a1-3)[Man(a1-6)]Man = target: Man(a1-3)[Man(a1-6)]Man
# How it was run: as §1
# [4] = target: Man(a1-3)[Man(a1-6)]Man(a1-6)[Man(a1-2)Man(a1-3)]Man(b1-4)GlcNAc(b1-4)GlcNAc
# How it was run: as §1
# [5] = target: Man(a1-3)[Man(a1-6)]Man(a1-6)[Man(a1-3)]Man
# How it was run: as §1
# [6] = target: Man(a1-3)[Man(a1-6)]Man(a1-6)[Man(a1-3)]Man(b1-4)GlcNAc(b1-4)GlcNAc
# How it was run: as §1
# [7] = target: Man(a1-3)[Man(a1-6)]Man(b1-4)GlcNAc(b1-4)GlcNAc
# How it was run: as §1
# Man(a1-6)Man = target: Man(a1-6)Man
# How it was run: as §1
# Man(b1-4)GlcNAc = target: Man(b1-4)GlcNAc
# How it was run: as §1
# Neu5Ac(a2-3)Gal = target: Neu5Ac(a2-3)Gal
# How it was run: as §1
# [8] = target: Neu5Ac(a2-3)Gal(b1-3)GalNAc
# How it was run: as §1
# [9] = target: Neu5Ac(a2-3)Gal(b1-3)GalNAc(b1-3)Gal(a1-4)Gal(b1-4)Glc
# How it was run: as §1
# [10] = target: Neu5Ac(a2-3)Gal(b1-3)GalNAc(b1-4)[Neu5Ac(a2-3)]Gal(b1-4)Glc
# How it was run: as §1
# [11] = target: Neu5Ac(a2-3)Gal(b1-3)GalNAc(b1-4)[Neu5Ac(a2-8)Neu5Ac(a2-3)]Gal(b1-4)Glc
# How it was run: as §1
# [12] = target: Neu5Ac(a2-3)Gal(b1-3)GalNAc6S
# How it was run: as §1
# [13] = target: Neu5Ac(a2-3)Gal(b1-3)GlcNAc
# How it was run: as §1
# [14] = target: Neu5Ac(a2-3)Gal(b1-3)GlcNAc(b1-3)Gal(b1-3)GlcNAc
# How it was run: as §1
# [15] = target: Neu5Ac(a2-3)Gal(b1-3)GlcNAc(b1-3)Gal(b1-4)GlcNAc
# How it was run: as §1
# [16] = target: Neu5Ac(a2-3)Gal(b1-3)GlcNAc(b1-3)GalNAc
# How it was run: as §1
# [17] = target: Neu5Ac(a2-3)Gal(b1-3)GlcNAc6S
# How it was run: as §1
# [18] = target: Neu5Ac(a2-3)Gal(b1-3)[Fuc(a1-4)]GlcNAc
# How it was run: as §1
# [19] = target: Neu5Ac(a2-3)Gal(b1-3)[Fuc(a1-4)]GlcNAc(b1-3)Gal(b1-3)[Fuc(a1-4)]GlcNAc
# How it was run: as §1
# [20] = target: Neu5Ac(a2-3)Gal(b1-3)[Fuc(a1-4)]GlcNAc(b1-3)Gal(b1-4)[Fuc(a1-3)]GlcNAc
# How it was run: as §1
# [21] = target: Neu5Ac(a2-3)Gal(b1-3)[Neu5Ac(a2-3)Gal(b1-4)]GlcNAc
# How it was run: as §1
# [22] = target: Neu5Ac(a2-3)Gal(b1-3)[Neu5Ac(a2-6)]GalNAc
# How it was run: as §1
# Neu5Ac(a2-3)Gal(b1-4)Glc = target: Neu5Ac(a2-3)Gal(b1-4)Glc
# How it was run: as §1
# [23] = target: Neu5Ac(a2-3)Gal(b1-4)GlcNAc
# How it was run: as §1
# [24] = target: Neu5Ac(a2-3)Gal(b1-4)GlcNAc(b1-2)Man(a1-3)[GlcNAc(b1-2)Man(b1-4)GlcNAc(b1-2)Man(a1-6)]Man(b1-4)GlcNAc(b1-4)GlcNAc
# How it was run: as §1
# [25] = target: Neu5Ac(a2-3)Gal(b1-4)GlcNAc(b1-2)Man(a1-3)[Neu5Ac(a2-6)Gal(b1-4)GlcNAc(b1-2)Man(a1-6)]Man(b1-4)GlcNAc(b1-4)GlcNAc
# How it was run: as §1
# [26] = target: Neu5Ac(a2-3)Gal(b1-4)GlcNAc(b1-3)Gal
# How it was run: as §1
# [27] = target: Neu5Ac(a2-3)Gal(b1-4)GlcNAc(b1-3)Gal(b1-3)GlcNAc
# How it was run: as §1
# [28] = target: Neu5Ac(a2-3)Gal(b1-4)GlcNAc(b1-3)Gal(b1-4)GlcNAc
# How it was run: as §1
# [29] = target: Neu5Ac(a2-3)Gal(b1-4)GlcNAc(b1-3)Gal(b1-4)GlcNAc(b1-3)Gal(b1-4)GlcNAc
# How it was run: as §1
# [30] = target: Neu5Ac(a2-3)Gal(b1-4)GlcNAc(b1-3)Gal(b1-4)[Fuc(a1-3)]GlcNAc
# How it was run: as §1
# [31] = target: Neu5Ac(a2-3)Gal(b1-4)GlcNAc(b1-3)GalNAc
# How it was run: as §1
# [32] = target: Neu5Ac(a2-3)Gal(b1-4)GlcNAc(b1-6)[Gal(b1-3)]GalNAc
# How it was run: as §1
# [33] = target: Neu5Ac(a2-3)Gal(b1-4)GlcNAc(b1-6)[Neu5Ac(a2-3)Gal(b1-3)]GalNAc
# How it was run: as §1
# [34] = target: Neu5Ac(a2-3)Gal(b1-4)GlcNAc6S
# How it was run: as §1
# [35] = target: Neu5Ac(a2-3)Gal(b1-4)[Fuc(a1-3)]GlcNAc
# How it was run: as §1
# [36] = target: Neu5Ac(a2-3)Gal(b1-4)[Fuc(a1-3)]GlcNAc(b1-3)Gal
# How it was run: as §1
# [37] = target: Neu5Ac(a2-3)Gal(b1-4)[Fuc(a1-3)]GlcNAc(b1-3)Gal(b1-4)GlcNAc
# How it was run: as §1
# [38] = target: Neu5Ac(a2-3)Gal(b1-4)[Fuc(a1-3)]GlcNAc(b1-3)Gal(b1-4)[Fuc(a1-3)]GlcNAc(b1-3)Gal(b1-4)[Fuc(a1-3)]GlcNAc
# How it was run: as §1
# [39] = target: Neu5Ac(a2-3)Gal(b1-4)[Fuc(a1-3)]GlcNAc(b1-3)GalNAc
# How it was run: as §1
# [40] = target: Neu5Ac(a2-3)Gal(b1-4)[Fuc(a1-3)]GlcNAc(b1-6)[Gal(b1-3)]GalNAc
# How it was run: as §1
binder,measurement,setting,value
"CVN (Nostoc ellipsosporum), P81180 (protein) LGKFSQTCYNSAIQGSVLTSTCERTNGGYNTSSIDLNSVIENVDGSLKWQPSNFIETCRNTQLAGSSELAAECKTRAQQFVSTKINLDDHIANIDGTLKYE",glycan array binding signal (z-score),[1],5.58
same,glycan array binding signal (z-score),[2],7.23
same,glycan array binding signal (z-score),[3],6.39
same,glycan array binding signal (z-score),Man(a1-3)[Man(a1-6)]Man,-0.299
same,glycan array binding signal (z-score),[4],4.22
same,glycan array binding signal (z-score),[5],-0.303
same,glycan array binding signal (z-score),[6],4.48
same,glycan array binding signal (z-score),[7],-0.296
same,glycan array binding signal (z-score),Man(a1-6)Man,-0.304
same,glycan array binding signal (z-score),Man(b1-4)GlcNAc,-0.304
same,glycan array binding signal (z-score),Neu5Ac(a2-3)Gal,-0.306
same,glycan array binding signal (z-score),[8],-0.18
same,glycan array binding signal (z-score),[9],-0.272
same,glycan array binding signal (z-score),[10],-0.263
same,glycan array binding signal (z-score),[11],-0.066
same,glycan array binding signal (z-score),[12],-0.262
same,glycan array binding signal (z-score),[13],-0.308
same,glycan array binding signal (z-score),[14],-0.195
same,glycan array binding signal (z-score),[15],-0.295
same,glycan array binding signal (z-score),[16],-0.269
same,glycan array binding signal (z-score),[17],-0.304
same,glycan array binding signal (z-score),[18],-0.304
same,glycan array binding signal (z-score),[19],0.775
same,glycan array binding signal (z-score),[20],0.614
same,glycan array binding signal (z-score),[21],-0.308
same,glycan array binding signal (z-score),[22],0.563
same,glycan array binding signal (z-score),Neu5Ac(a2-3)Gal(b1-4)Glc,-0.299
same,glycan array binding signal (z-score),[23],-0.306
same,glycan array binding signal (z-score),[24],-0.305
same,glycan array binding signal (z-score),[25],-0.305
same,glycan array binding signal (z-score),[26],0.197
same,glycan array binding signal (z-score),[27],-0.307
same,glycan array binding signal (z-score),[28],-0.3
same,glycan array binding signal (z-score),[29],-0.296
same,glycan array binding signal (z-score),[30],-0.297
same,glycan array binding signal (z-score),[31],-0.285
same,glycan array binding signal (z-score),[32],-0.306
same,glycan array binding signal (z-score),[33],-0.294
same,glycan array binding signal (z-score),[34],-0.309
same,glycan array binding signal (z-score),[35],-0.268
same,glycan array binding signal (z-score),[36],-0.307
same,glycan array binding signal (z-score),[37],-0.084
same,glycan array binding signal (z-score),[38],0.496
same,glycan array binding signal (z-score),[39],0.185
same,glycan array binding signal (z-score),[40],-0.179
